# According to PubChem BioAssay AID686979 (National Center for Advancing Translational Sciences (NCATS), 2013):
# Where “and” joins values, the source holds several entries; their conditions need not be identical. Equal entries are not always repeated. Screen size: about 420,000 compounds; about 50,000 (12%) were called active. The inconclusive results got no clear call from the source; some entries with a clear call stand among them for comparison. Calls follow the shape of the dose curve; as a rule, active = well fitted inhibition curve with a large enough effect; inconclusive = small, poorly fitted or top-dose-only effect; inactive = flat fitted curve, though single readings scatter. Where the call is inconclusive, the potency comes from a doubtful curve fit. Some structures have more than one record in an assay (separate samples or runs), and their calls can disagree.
# Test: qHTS for Inhibitors of human tyrosyl-DNA phosphodiesterase 1 (TDP1): qHTS in cells in presence of CPT; also: nearly all actives have a fitted effect of over 55% in size
# Details: chicken DT40 Tdp1-/-;hTDP1 cells + 20 nM CPT, ATP luminescence, 48 h; activity change, negative = growth inhibition: at 46.2 µM (top of the series) unless noted
# Method in brief: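 Chicken DT40 Tdp1-/- cells stably complemented with human TDP1 were seeded at 400 cells/well in medium containing 20 nM camptothecin, exposed to pin-transferred compounds, and grown at 37 °C for at least 48 hr. Viability was read as ATP luminescence.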
# % is scaled to controls: 0 for no effect and ±100 for the full control effect; potency is read from the fitted curve at half-maximal effect; tags tell the direction and shape of the fitted curve.
Structure (SMILES),Potency,"activity change, negative = growth inhibition"
CN(C)CCCOc1nn(Cc2ccccc2)c2ccccc12,"inconclusive: 12.8 µM [inhibitor, single point] and inconclusive: 29.1 µM [inhibitor, single point]",–
COc1cc([N+](=O)[O-])c2nc(C)ccc2c1[N+](=O)[O-],active: 9.2 µM,–
O=[N+]([O-])/N=C1\NCCN1Cc1ccc(Cl)nc1,active: 8.41 µM,–
COc1cccc(NC(=O)C2CCN(c3nnc(C)c4c(C)n(-c5ccccc5)nc34)CC2)c1,"inconclusive: 10.3 µM [inhibitor, single point]",–
Cn1c(CN2CCN(C(=O)COc3ccccc3)CC2)nc2cc([N+](=O)[O-])ccc21,"inconclusive: 25.9 µM [inhibitor, single point]",–
CCC(=O)c1cn(Cc2ccccc2C#N)c2ccccc12,"inconclusive: 25.9 µM [inhibitor, single point]",–
Cc1ccc(S(=O)(=O)Oc2ccccc2C=C2C(=O)N(C)C(=O)N(C)C2=O)cc1,"inconclusive: 29.1 µM [inhibitor, single point]",–
Cc1nc2ccccc2c(=O)n1-c1c(Cl)cccc1Cl,active: 23.1 µM,–
C[N+](C)(C)CC1CCCC(C[N+](C)(C)C)C1=O (stereo not drawn),active: 0.0411 µM,–
CCCCn1nnnc1C(c1cccc(OC)c1OC)N1CCC2(CC1)C(=O)NCN2c1ccccc1 (stereo not drawn),"inconclusive: 23.1 µM [inhibitor, single point]",–
CC(=O)NC(=O)NC(C)Cc1ccccc1 (stereo not drawn),"inconclusive: 29.1 µM [inhibitor, single point]",–
O=S(=O)(c1ccccc1)N1CCN2CCCC2C1 (stereo not drawn),–,inactive: 7.59%
Cc1ccc2c(c1)C1CN(C)CCC1N2C(=O)c1ccccc1NS(=O)(=O)c1cccc(C(F)(F)F)c1 (stereo not drawn),"inconclusive: 20.6 µM [inhibitor, partial curve]",–
C[n+]1c(-c2ccccc2)sc2ccccc21,active: 1.3 µM,–
CC(C)Oc1ccc(NC(=O)c2cc3ccccc3o2)cc1,"inconclusive: 10.3 µM [inhibitor, partial curve]",–
COc1ccc2[nH]c(C)c(CCNCc3cn(C)c4ccccc34)c2c1,active: 11.6 µM,–
Cc1cc(Cc2c(O)[nH]c(=S)[nH]c2=O)ccc1OC(C)C,–,inactive: -0.572%
COc1cc2c(c(OC)c1OC)-c1ccc(O)cc1C(NC(C)=O)CC2 (stereo not drawn),active: 0.206 µM,–
Nc1c(C(=O)NCCN2CCOCC2)c2nc3ccccc3nc2n1Cc1ccccc1,"inconclusive: 18.4 µM [inhibitor, single point]",–
COC(=O)C1=C(c2ccc(OCc3ccccc3)cc2)C[C@@H]2CC[C@H]1N2C(=O)NCc1ccc(OC)cc1,active: 7.31 µM,–
COc1ccc(F)cc1C(=O)C1CCCN(Cc2cnc(C)s2)C1 (stereo not drawn),"inconclusive: 29.1 µM [inhibitor, single point]",–
CCOP(=O)(OCC)c1nc(-c2cccc3ccccc23)oc1NCCc1ccc(OC)cc1,"inconclusive: 16.4 µM [inhibitor, single point]",–
Oc1ccc2c3c1OC1c4[nH]c5ccccc5c4C[C@@]4(O)C(C2)N(CC2CC2)CC[C@]314 (stereo partly drawn),"inconclusive: 29.1 µM [inhibitor, single point]",–
COCCCNC(=O)c1c(NC(=O)c2ccccc2)n(Cc2ccccc2)c2nc3ccccc3nc12,"inconclusive: 9.2 µM [inhibitor, partial curve]",–

Structure (SMILES),Potency,"activity change, negative = growth inhibition"
CSc1ccc(CN2CCC2(C)C(=O)Nc2cccc(NS(C)(=O)=O)c2)cc1 (stereo not drawn),active: 18.4 µM,–
CN1C(=O)CN=C(c2ccccc2)c2cc([N+](=O)[O-])ccc21,"inconclusive: 33.5 µM [inhibitor, single point]",–
CCOc1ccc(-n2c(O)c(C=NCCN3CCNCC3)c(=O)[nH]c2=O)cc1,"inconclusive: 2.06 µM [inhibitor, partial curve]",–
O=C(Cc1ccccc1)N1CCN(Cc2ccccc2Cl)CC1,"inconclusive: 18.4 µM [inhibitor, single point]",–
CCN(CC)c1ccc(C=NN2CCCCCC2)cc1,"inconclusive: 23.1 µM [inhibitor, single point]",–
Cc1nc2nc(C)c(CCC(=O)N3CCC4(CC3)OCCO4)c(C)n2n1,–,inactive: -1.59%
O=Cc1cn(Cc2ccc(Br)cc2)c2ccccc12,–,inactive: -10.5%
CCn1cc(CN2CCCC(C(=O)c3sccc3C)C2)cn1 (stereo not drawn),–,inactive: -10.8%
CCN(CC)C(=O)c1ccc(NC(=O)CCCSc2ccccc2)cc1,–,inactive: -2.18%
COC(=O)C1=C(c2ccc(F)cc2OCc2ccccc2)C[C@@H]2CC[C@H]1N2C(=O)NCc1ccccc1Cl,"inconclusive: 29.1 µM [inhibitor, single point]",–
O=c1[nH]c2ccccc2n1C1CCN(C(c2ccnc3ccccc23)c2nnnn2Cc2ccccc2)CC1 (stereo not drawn),active: 20.6 µM,–
Brc1ccc(CN2CCNCC2)s1,"inconclusive: 20.6 µM [inhibitor, single point]",–
CC(=O)OC1CC(OC2C(O)CC(OC3C(O)CC(OC4CCC5(C)C(CCC6C5CC(O)C5(C)C(C7=CC(=O)OC7)CCC65O)C4)OC3C)OC2C)OC(C)C1OC1OC(CO)C(O)C(O)C1O (stereo not drawn),active: 1 µM and active: 1.3 µM,–
CC(C)C[C@@H]1COc2cccc(N3CCN(C)CC3)c2S(=O)(=O)N1,–,inactive: -3.09%
NCc1cc(=O)[nH]o1,inactive,–
C[C@H]1CCC/C=C/C2C[C@H](O)C[C@H]2[C@H](O)/C=C/C(=O)O1 (stereo partly drawn),active: 0.251 µM,–
COc1ccc(CN2CCCC(C(=O)c3sccc3C)C2)cc1O (stereo not drawn),"inconclusive: 23.1 µM [inhibitor, single point]",–
c1ccc(OCC2CO2)cc1 (stereo not drawn),–,inactive: -11.1%
CN1C(=O)NC(=O)C(C)(C2=CCCCC2)C1=O (stereo not drawn),inactive,–
C[C@@]12N[C@@H](Cc3ccccc31)c1ccccc12,inactive,–
Cc1ccccc1-c1nn2c(=O)cc(CN3CCN(C(=O)COc4ccccc4Cl)CC3)nc2s1,active: 18.4 µM,–
CN1C(=O)c2ccccc2Sc2ccc(NC(=O)c3ccc(C(F)(F)F)cc3)cc21,active: 4.61 µM,–
COc1ccc(NC2=NCCCS2)cc1OC,–,inactive: 14.4%
O=C(c1cc(C(=O)NCc2ccccc2)c(=O)n(Cc2ccccc2)c1)c1cc(Br)ccc1O,"inconclusive: 20.6 µM [inhibitor, single point]",–
